According to article PMC11480334:
Results are given in words; binding and its absence hold for the method and conditions named. In cells and extracts the contact can be indirect. Some binding calls cover weakened binding; strength is not graded here. For some of these results: Where a sequence is shown, tags or fusion partners need not be part of it.

Protein sequences, listed by entry. Tags and fused reporters are not part of them. Lines headed by an entry give the natural chain unless they say otherwise; changes in a name come on top.
UniProt P46461: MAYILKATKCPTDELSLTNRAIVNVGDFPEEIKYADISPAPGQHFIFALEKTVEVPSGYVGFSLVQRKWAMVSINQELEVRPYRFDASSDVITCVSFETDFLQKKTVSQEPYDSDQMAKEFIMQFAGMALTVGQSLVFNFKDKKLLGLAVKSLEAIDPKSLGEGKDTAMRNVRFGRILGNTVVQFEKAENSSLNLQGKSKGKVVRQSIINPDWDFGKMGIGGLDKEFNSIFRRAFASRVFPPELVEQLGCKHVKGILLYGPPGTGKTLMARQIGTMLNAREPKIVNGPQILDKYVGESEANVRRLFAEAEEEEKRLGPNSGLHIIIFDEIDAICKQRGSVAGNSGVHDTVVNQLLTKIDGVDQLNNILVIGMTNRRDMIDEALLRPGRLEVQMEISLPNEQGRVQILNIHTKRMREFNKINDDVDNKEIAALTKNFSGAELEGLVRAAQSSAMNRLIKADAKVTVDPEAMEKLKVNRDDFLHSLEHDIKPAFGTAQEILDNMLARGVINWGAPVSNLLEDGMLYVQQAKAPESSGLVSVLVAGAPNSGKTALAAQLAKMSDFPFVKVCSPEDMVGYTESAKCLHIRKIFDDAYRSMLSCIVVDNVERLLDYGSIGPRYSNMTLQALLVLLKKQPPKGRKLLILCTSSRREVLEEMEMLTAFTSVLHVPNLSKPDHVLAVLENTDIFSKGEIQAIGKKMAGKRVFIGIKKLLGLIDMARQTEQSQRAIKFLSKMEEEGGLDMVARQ

How the values were obtained:
[1] = molecular target: T1, mCherry-tagged Hdc (histidine decarboxylase), expressed in S2 cells (Drosophila) (UniProt Q05733); experiment: co-IP; S2 cells co-expressing Hdc-mCherry and Myc-tagged NSF1; lysis in 10 mM Tris-HCl pH 7.4, 150 mM NaCl, 0.5 mM EDTA, 0.5% NP-40; precipitated with anti-mCherry (RFP agarose) beads, blotted against mCherry and Myc
T1 sequence: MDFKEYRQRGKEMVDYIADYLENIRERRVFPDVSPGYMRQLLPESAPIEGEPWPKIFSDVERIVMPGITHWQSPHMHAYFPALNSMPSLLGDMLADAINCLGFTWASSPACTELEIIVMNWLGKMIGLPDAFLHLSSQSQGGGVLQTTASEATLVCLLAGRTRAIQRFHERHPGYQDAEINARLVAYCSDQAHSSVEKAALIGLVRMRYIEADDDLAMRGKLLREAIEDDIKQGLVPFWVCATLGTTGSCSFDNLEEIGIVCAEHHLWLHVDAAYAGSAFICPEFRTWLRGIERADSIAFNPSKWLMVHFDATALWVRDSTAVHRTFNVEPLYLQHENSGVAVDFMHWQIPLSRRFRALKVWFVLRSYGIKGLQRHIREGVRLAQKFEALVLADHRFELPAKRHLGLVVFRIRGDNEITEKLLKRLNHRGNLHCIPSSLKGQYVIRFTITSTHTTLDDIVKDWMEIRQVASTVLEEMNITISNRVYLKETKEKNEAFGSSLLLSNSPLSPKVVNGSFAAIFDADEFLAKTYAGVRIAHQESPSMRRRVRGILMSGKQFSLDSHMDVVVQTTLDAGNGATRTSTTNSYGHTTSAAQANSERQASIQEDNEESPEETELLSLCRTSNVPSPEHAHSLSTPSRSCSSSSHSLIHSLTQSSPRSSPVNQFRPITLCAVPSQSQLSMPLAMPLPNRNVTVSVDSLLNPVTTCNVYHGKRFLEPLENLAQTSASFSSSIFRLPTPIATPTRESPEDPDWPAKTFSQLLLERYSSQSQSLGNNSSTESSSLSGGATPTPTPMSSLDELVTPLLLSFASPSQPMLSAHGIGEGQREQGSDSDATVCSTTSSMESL

[2] = molecular target: T2, mCherry-tagged Hdc (histidine decarboxylase), expressed in fly photoreceptor cells (Drosophila) (UniProt Q05733); experiment: co-IP; lysates from dissected heads of trp-Hdc-mCherry/culd-NSF1-GFP flies; precipitated with anti-mCherry beads, blotted against mCherry and GFP
T2 sequence: T1 sequence

[3] = molecular target: MYC-tagged NSF1, expressed in S2 cells (Drosophila) (UniProt P46461); experiment: co-IP; S2 cells co-expressing NSF1-Myc and truncated Hdc with mCherry tag; lysis in 10 mM Tris-HCl pH 7.4, 150 mM NaCl, 0.5 mM EDTA, 0.5% NP-40; precipitated with Myc beads, blotted against Myc and mCherry

With “MYC-tagged NSF1, expressed in S2 cells (from UniProt P46461 1-745)” the binding [1] was “binds”.

With “MYC-tagged NSF1^G274E, expressed in S2 cells (from UniProt P46461 1-745)” the binding [1] was “binds”.

With “GFP-tagged NSF1, expressed in fly photoreceptor cells (from UniProt P46461 1-745)” the binding [2] was “binds”.

With MDFKEYRQRGKEMVDYIADYLENIRERRVFPDVS (domain or fragment, UniProt Q05733 1-34) [Hdc-N-mCherry (N-terminal region of Hdc, Hdc_(1-34))] the binding [3] was “binds”.

B1: Hdc-dN-mCherry (Hdc lacking its N-terminal 34 amino acids, Hdc_(35-847)) (domain or fragment, UniProt Q05733 35-847)
chain: PGYMRQLLPESAPIEGEPWPKIFSDVERIVMPGITHWQSPHMHAYFPALNSMPSLLGDMLADAINCLGFTWASSPACTELEIIVMNWLGKMIGLPDAFLHLSSQSQGGGVLQTTASEATLVCLLAGRTRAIQRFHERHPGYQDAEINARLVAYCSDQAHSSVEKAALIGLVRMRYIEADDDLAMRGKLLREAIEDDIKQGLVPFWVCATLGTTGSCSFDNLEEIGIVCAEHHLWLHVDAAYAGSAFICPEFRTWLRGIERADSIAFNPSKWLMVHFDATALWVRDSTAVHRTFNVEPLYLQHENSGVAVDFMHWQIPLSRRFRALKVWFVLRSYGIKGLQRHIREGVRLAQKFEALVLADHRFELPAKRHLGLVVFRIRGDNEITEKLLKRLNHRGNLHCIPSSLKGQYVIRFTITSTHTTLDDIVKDWMEIRQVASTVLEEMNITISNRVYLKETKEKNEAFGSSLLLSNSPLSPKVVNGSFAAIFDADEFLAKTYAGVRIAHQESPSMRRRVRGILMSGKQFSLDSHMDVVVQTTLDAGNGATRTSTTNSYGHTTSAAQANSERQASIQEDNEESPEETELLSLCRTSNVPSPEHAHSLSTPSRSCSSSSHSLIHSLTQSSPRSSPVNQFRPITLCAVPSQSQLSMPLAMPLPNRNVTVSVDSLLNPVTTCNVYHGKRFLEPLENLAQTSASFSSSIFRLPTPIATPTRESPEDPDWPAKTFSQLLLERYSSQSQSLGNNSSTESSSLSGGATPTPTPMSSLDELVTPLLLSFASPSQPMLSAHGIGEGQREQGSDSDATVCSTTSSMESL
In the case of B1, the binding [3] is reported as “no binding”.

B2: Hdc-M-mCherry (enzymatic domain of Hdc, Hdc_(35-412)) (domain or fragment, UniProt Q05733 35-412)
chain: PGYMRQLLPESAPIEGEPWPKIFSDVERIVMPGITHWQSPHMHAYFPALNSMPSLLGDMLADAINCLGFTWASSPACTELEIIVMNWLGKMIGLPDAFLHLSSQSQGGGVLQTTASEATLVCLLAGRTRAIQRFHERHPGYQDAEINARLVAYCSDQAHSSVEKAALIGLVRMRYIEADDDLAMRGKLLREAIEDDIKQGLVPFWVCATLGTTGSCSFDNLEEIGIVCAEHHLWLHVDAAYAGSAFICPEFRTWLRGIERADSIAFNPSKWLMVHFDATALWVRDSTAVHRTFNVEPLYLQHENSGVAVDFMHWQIPLSRRFRALKVWFVLRSYGIKGLQRHIREGVRLAQKFEALVLADHRFELPAKRHLGLVVFRI
For B2, the binding [3] was “no binding”.

B3: Hdc-C-mCherry (C-terminal region of Hdc, Hdc_(413-847)) (domain or fragment, UniProt Q05733 413-847)
chain: RGDNEITEKLLKRLNHRGNLHCIPSSLKGQYVIRFTITSTHTTLDDIVKDWMEIRQVASTVLEEMNITISNRVYLKETKEKNEAFGSSLLLSNSPLSPKVVNGSFAAIFDADEFLAKTYAGVRIAHQESPSMRRRVRGILMSGKQFSLDSHMDVVVQTTLDAGNGATRTSTTNSYGHTTSAAQANSERQASIQEDNEESPEETELLSLCRTSNVPSPEHAHSLSTPSRSCSSSSHSLIHSLTQSSPRSSPVNQFRPITLCAVPSQSQLSMPLAMPLPNRNVTVSVDSLLNPVTTCNVYHGKRFLEPLENLAQTSASFSSSIFRLPTPIATPTRESPEDPDWPAKTFSQLLLERYSSQSQSLGNNSSTESSSLSGGATPTPTPMSSLDELVTPLLLSFASPSQPMLSAHGIGEGQREQGSDSDATVCSTTSSMESL
In the case of B3, the binding [3] is reported as “no binding”.
